# Some of the results follow.
# Columns and labels:
# Experiment in all cases: glycan array binding signal (z-score within array); higher = stronger binding
# Settings in all cases: glycan notation: IUPAC condensed, linker removed
# Fuc(a1-2)Gal = molecular target: Fuc(a1-2)Gal
# Outline: (§1)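 Glycan array data were curated from 3228 arrays in the Consortium for Functional Glycomics database and kept only where the protein sequence was available. Glycan names were converted to IUPAC-condensed notation, and columns mapping to the same glycan were averaged. The binding signal is a within-array Z-score, averaged across arrays of the same protein sequence at different concentrations or buffers and across linkers. Negative Z-scores can be read as non-binding.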
# Fuc(a1-2)Gal(b1-3)GalNAc = molecular target: Fuc(a1-2)Gal(b1-3)GalNAc
# Outline: as §1
# [1] = molecular target: Fuc(a1-2)Gal(b1-3)GalNAc(b1-3)Gal
# Outline: as §1
# [2] = molecular target: Fuc(a1-2)Gal(b1-3)GalNAc(b1-3)Gal(a1-4)Gal(b1-4)Glc
# Outline: as §1
# [3] = molecular target: Fuc(a1-2)Gal(b1-3)GalNAc(b1-3)Gal(b1-4)Glc
# Outline: as §1
# [4] = molecular target: Fuc(a1-2)Gal(b1-3)GalNAc(b1-4)[Neu5Ac(a2-3)]Gal(b1-4)Glc
# Outline: as §1
# [5] = molecular target: Fuc(a1-2)Gal(b1-3)[Fuc(a1-4)]GlcNAc
# Outline: as §1
# Fuc(a1-2)Gal(b1-4)Glc = molecular target: Fuc(a1-2)Gal(b1-4)Glc
# Outline: as §1
# Fuc(a1-2)Gal(b1-4)GlcNAc = molecular target: Fuc(a1-2)Gal(b1-4)GlcNAc
# Outline: as §1
# [6] = molecular target: Fuc(a1-2)Gal(b1-4)GlcNAc(b1-3)Gal(b1-4)GlcNAc
# Outline: as §1
# [7] = molecular target: Fuc(a1-2)Gal(b1-4)GlcNAc(b1-3)Gal(b1-4)GlcNAc(b1-3)Gal(b1-4)GlcNAc
# Outline: as §1
# [8] = molecular target: Fuc(a1-2)Gal(b1-4)[Fuc(a1-3)]GalNAc(b1-3)Gal(b1-4)[Fuc(a1-3)]GlcNAc
# Outline: as §1
# [9] = molecular target: Fuc(a1-2)Gal(b1-4)[Fuc(a1-3)]GalNAc(b1-3)Gal(b1-4)[Fuc(a1-3)]GlcNAc(b1-3)Gal(b1-4)[Fuc(a1-3)]GalNAc
# Outline: as §1
# [10] = molecular target: Fuc(a1-2)Gal(b1-4)[Fuc(a1-3)]GlcNAc
# Outline: as §1
# Fuc(a1-2)GlcNAc = molecular target: Fuc(a1-2)GlcNAc
# Outline: as §1
# Fuc(a1-2)[Gal(a1-3)]Gal = molecular target: Fuc(a1-2)[Gal(a1-3)]Gal
# Outline: as §1
# [11] = molecular target: Fuc(a1-2)[Gal(a1-3)]Gal(b1-3)GlcNAc
# Outline: as §1
# [12] = molecular target: Fuc(a1-2)[Gal(a1-3)]Gal(b1-4)Glc
# Outline: as §1
# [13] = molecular target: Fuc(a1-2)[Gal(a1-3)]Gal(b1-4)GlcNAc
# Outline: as §1
# [14] = molecular target: Fuc(a1-2)[Gal(a1-3)]Gal(b1-4)[Fuc(a1-3)]GlcNAc
# Outline: as §1
# [15] = molecular target: Fuc(a1-2)[Gal(a1-4)]Gal(b1-4)GalNAc
# Outline: as §1
# [16] = molecular target: Fuc(a1-2)[GalNAc(a1-3)]Gal
# Outline: as §1
# [17] = molecular target: Fuc(a1-2)[GalNAc(a1-3)]Gal(b1-3)GlcNAc
# Outline: as §1
# [18] = molecular target: Fuc(a1-2)[GalNAc(a1-3)]Gal(b1-4)Glc
# Outline: as §1
# [19] = molecular target: Fuc(a1-2)[GalNAc(a1-3)]Gal(b1-4)GlcNAc
# Outline: as §1
# [20] = molecular target: Fuc(a1-2)[GalNAc(a1-3)]Gal(b1-4)[Fuc(a1-3)]GlcNAc
# Outline: as §1
# [21] = molecular target: Fuc(a1-2)[GalNAc(a1-4)]Gal(b1-4)GlcNAc
# Outline: as §1
# Fuc(a1-3)GlcNAc = molecular target: Fuc(a1-3)GlcNAc
# Outline: as §1
# [22] = molecular target: Fuc(a1-3)[Gal(b1-4)]GlcNAc
# Outline: as §1
# [23] = molecular target: Fuc(a1-3)[Gal(b1-4)]GlcNAc(b1-4)Gal(b1-4)[Fuc(a1-3)]GlcNAc
# Outline: as §1
# [24] = molecular target: Fuc(a1-3)[Gal(b1-4)]GlcNAc(b1-4)Gal(b1-4)[Fuc(a1-3)]GlcNAc(b1-4)Gal(b1-4)[Fuc(a1-3)]GlcNAc
# Outline: as §1
# [25] = molecular target: Fuc(a1-3)[Gal3S(b1-4)]GlcNAc
# Outline: as §1
# [26] = molecular target: Fuc(a1-3)[GalNAc(b1-4)]Gal(b1-4)GlcNAc
# Outline: as §1
# Fuc(a1-4)GlcNAc = molecular target: Fuc(a1-4)GlcNAc
# Outline: as §1
# Fuc(b1-3)GlcNAc = molecular target: Fuc(b1-3)GlcNAc
# Outline: as §1
# Gal(a1-2)Gal = molecular target: Gal(a1-2)Gal
# Outline: as §1
# Gal(a1-3)Gal = molecular target: Gal(a1-3)Gal
# Outline: as §1
binder,measurement,setting,value
"EcCDA (Encephalitazoon cuniculi), Q8SU65 (protein) MLLCLLYFTSSWCSGSDVPDVCTNSGMIAINFVDGPVRGVTDRILNTLDELGVKATFSFTVNQKAVGNVGQLYRRAVEEGHNVALRVDPSMDEGYQCLSQDALENNVDREIDTIDGLSGTEIRYAAVPICNGQVNSEMYNILTERGVLPVGYTFCPYDYDDPVGEFESMIEGSDPKHHSFIILMHDGQEADTSRLENMVKIGKDKGYRFVNMDECLQGYKGAPGDPELSLRGKGVESIGKGFLPFFLMMLVRLL",glycan array binding signal (z-score),Fuc(a1-2)Gal,-0.081
same,glycan array binding signal (z-score),Fuc(a1-2)Gal(b1-3)GalNAc,-0.199
same,glycan array binding signal (z-score),[1],-0.254
same,glycan array binding signal (z-score),[2],-0.294
same,glycan array binding signal (z-score),[3],-0.394
same,glycan array binding signal (z-score),[4],-0.282
same,glycan array binding signal (z-score),[5],-0.367
same,glycan array binding signal (z-score),Fuc(a1-2)Gal(b1-4)Glc,-0.343
same,glycan array binding signal (z-score),Fuc(a1-2)Gal(b1-4)GlcNAc,-0.242
same,glycan array binding signal (z-score),[6],-0.358
same,glycan array binding signal (z-score),[7],-0.32
same,glycan array binding signal (z-score),[8],1.72
same,glycan array binding signal (z-score),[9],-0.185
same,glycan array binding signal (z-score),[10],1.36
same,glycan array binding signal (z-score),Fuc(a1-2)GlcNAc,0.694
same,glycan array binding signal (z-score),Fuc(a1-2)[Gal(a1-3)]Gal,-0.206
same,glycan array binding signal (z-score),[11],-0.284
same,glycan array binding signal (z-score),[12],2.96
same,glycan array binding signal (z-score),[13],-0.119
same,glycan array binding signal (z-score),[14],-0.284
same,glycan array binding signal (z-score),[15],-0.277
same,glycan array binding signal (z-score),[16],-0.271
same,glycan array binding signal (z-score),[17],-0.096
same,glycan array binding signal (z-score),[18],0.117
same,glycan array binding signal (z-score),[19],-0.335
same,glycan array binding signal (z-score),[20],-0.101
same,glycan array binding signal (z-score),[21],0.178
same,glycan array binding signal (z-score),Fuc(a1-3)GlcNAc,-0.207
same,glycan array binding signal (z-score),[22],-0.055
same,glycan array binding signal (z-score),[23],0.636
same,glycan array binding signal (z-score),[24],-0.377
same,glycan array binding signal (z-score),[25],-0.367
same,glycan array binding signal (z-score),[26],-0.214
same,glycan array binding signal (z-score),Fuc(a1-4)GlcNAc,0.247
same,glycan array binding signal (z-score),Fuc(b1-3)GlcNAc,0.209
same,glycan array binding signal (z-score),Gal(a1-2)Gal,-0.12
same,glycan array binding signal (z-score),Gal(a1-3)Gal,-0.277

# Source: the supplement of paper PMC8728848
